Assay results as given in the supplement of paper PMC9446081.
About 220 (0.56%) of roughly 39,000 compounds showed activity. This is one part of the list.

System: Escherichia coli K-12 BW25113
Experiment: relative growth (OD600 normalised to plate interquartile mean) (fraction); higher = less growth inhibition, active = 0.2 or less
Settings: 50 µM; LB; incubation time: overnight (16-24 h)
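Also: static incubation at 37 °C against the wild-type strain, values averaged over two biological replicates.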

Question: Which relative growth does the source give for `Cc1noc(C)c1NC(=O)Nc1cccc2c1O[C@@H](CN(C)C(=O)Nc1ccc(C(F)(F)F)cc1)[C@H](C)CN([C@@H](C)CO)C2=O` here?
Answer: inactive: 0.954

Question: `COc1cccc(NC(=O)N(C)C[C@H]2Oc3ncc(C#Cc4ccncc4)cc3C(=O)N([C@H](C)CO)C[C@@H]2C)c1` was tested. Which relative growth did it give?
Answer: inactive: 1.01

Question: For `Cc1cnc(CNC(=O)c2c(=O)c3ccc(N4CCCN(C)CC4)nc3n3c2sc2ccccc23)cn1`, which relative growth is on record?
Answer: inactive: 1.02

Question: With `C[C@@H]1CN([C@@H](C)CO)C(=O)c2cc(NC(=O)Cc3ccccc3)ccc2O[C@@H](C)CCCCO[C@H]1CN(C)S(=O)(=O)c1cccs1` as the compound, how does the relative growth read?
Answer: inactive: 1.01

Question: For `CCS(=O)(=O)Nc1ccc2c(c1)C(=O)N(C)[C@H]1CC[C@@H](CC(=O)N3CCN(C)CC3)O[C@H]1CO2`, which relative growth is on record?
Answer: inactive: 0.988

Question: For `COc1ccc2c3c(n(c2c1)C)[C@H](CO)N(Cc1cc(cc(c1)OC)OC)C[C@]13CCN(CC1)S(=O)(=O)c1cn(cn1)C`, which relative growth is on record?
Answer: inactive: 0.99

Question: How did the relative growth turn out when `CCc1nc2c(C)cc(N3CCN(CC(=O)N4CC(O)C4)CC3)cn2c1N(C)c1nc(-c2ccc(F)cc2)c(C#N)s1` was run?
Answer: inactive: 0.973

Question: `COc1ccc(NC(=O)N(C)C[C@H]2Oc3ccc(NC(=O)Nc4ccc(C(F)(F)F)cc4)cc3C(=O)N([C@H](C)CO)C[C@@H]2C)cc1` was tested. Which relative growth did it give?
Answer: inactive: 1.01

Question: With `O=C(Nc1ccccc1C(=O)O)c1nnc[nH]1` as the compound, how does the relative growth read?
Answer: inactive: 0.892

Question: `C[C@@H](O)CN1C(=S)S[C@@H]2CS(=O)(=O)C[C@@H]21` was tested. Which relative growth did it give?
Answer: inactive: 0.907

Question: How did the relative growth turn out when `COc1ccccc1-c1cnc2c(c1)C(=O)N([C@H](C)CO)C[C@@H](C)[C@H](CN(C)C(=O)c1cccnc1)O2` was run?
Answer: inactive: 0.969

Question: Which relative growth does the source give for `C[C@@H]1CCCCO[C@H](CN(C)S(=O)(=O)c2cn(C)cn2)[C@@H](C)CN([C@H](C)CO)C(=O)c2cc(NS(=O)(=O)c3ccccc3)ccc2O1` here?
Answer: inactive: 1.02

Question: How did the relative growth turn out when `O=C(C[C@@H]1CC[C@@H]2[C@H](COC[C@@H](O)CN2S(=O)(=O)c2ccccc2Cl)O1)NCc1ccccc1Cl` was run?
Answer: inactive: 1.01

Question: With `COc1ccc(CN(C)C[C@H]2OCCCC[C@@H](C)Oc3ccc(NC(=O)Nc4ccc(F)cc4)cc3C(=O)N([C@H](C)CO)C[C@H]2C)cc1` as the compound, how does the relative growth read?
Answer: inactive: 1.04

Question: Which relative growth does the source give for `CC(C)(C)OC(=O)N1CCNC(=O)C1` here?
Answer: inactive: 1.06

Question: `C[C@@H]1CN([C@@H](C)CO)C(=O)c2cccc(NS(=O)(=O)c3ccc(F)cc3)c2O[C@H]1CN(C)S(=O)(=O)c1cccs1` was tested. Which relative growth did it give?
Answer: inactive: 1.01

Question: How did the relative growth turn out when `CCOC(=O)CCC(=O)OC1C(OC2C(C)C(OC3CC(C)(OC)C(O)C(C)O3)C(C)C(=O)OC(CC)C(C)(O)C(O)C(C)C(=O)C(C)CC2(C)O)OC(C)CC1N(C)C` (stereo not given) was run?
Answer: inactive: 0.709

Question: With `C[C@@H]1CN([C@@H](C)CO)C(=O)c2cc(NC(=O)Nc3ccccc3)ccc2O[C@@H](C)CCCCO[C@H]1CN(C)CC1CCCCC1` as the compound, how does the relative growth read?
Answer: inactive: 0.986

Question: With `COc1ccc(CN(C)C[C@@H]2OCCCC[C@H](C)Oc3ccc(NC(=O)NC(C)C)cc3C(=O)N([C@H](C)CO)C[C@@H]2C)cc1` as the compound, how does the relative growth read?
Answer: inactive: 0.995

Question: For `CN(C)CC(=O)N[C@H]1C=C[C@H](CC(=O)O)O[C@@H]1CO`, which relative growth is on record?
Answer: inactive: 0.918

Question: `C[C@H](CO)N1C[C@H](C)[C@H](CN(C)CC2CCCCC2)OCCCC[C@H](C)Oc2ccc(NC(=O)CCCN(C)C)cc2C1=O` was tested. Which relative growth did it give?
Answer: inactive: 0.985

Question: For `NC(=O)c1ccc(N)cc1N1CCCC1`, which relative growth is on record?
Answer: inactive: 1.01

Question: How did the relative growth turn out when `COc1cccc(NC(=O)N(C)C[C@@H]2Oc3cc(C#CC4(O)CCCC4)ccc3S(=O)(=O)N([C@@H](C)CO)C[C@H]2C)c1` was run?
Answer: inactive: 0.972

Question: For `C[C@H]1CN([C@@H](C)CO)C(=O)c2cc(C#CCN(C)C)cnc2O[C@@H]1CN(C)S(C)(=O)=O`, which relative growth is on record?
Answer: inactive: 0.996

Question: `C1CCN2CC3CC(CN4CCCCC34)C2C1.O=S(=O)(O)O` (stereo not given) was tested. Which relative growth did it give?
Answer: inactive: 1.09

Question: How did the relative growth turn out when `NCC1OC(OC2C(N)CC(N)C(O)C2OC2OC(CO)C(O)C2O)C(N)C(O)C1O.O=S(=O)(O)O` (stereo not given) was run?
Answer: inactive: 0.78

Question: Which relative growth does the source give for `CO[C@H]1CN(C)C(=O)c2cc(NS(=O)(=O)CC(F)(F)F)ccc2OC[C@@H](C)N(C(=O)c2ccc3c(c2)OCO3)C[C@H]1C` here?
Answer: inactive: 0.979

Question: How did the relative growth turn out when `CNC[C@@H]1CC[C@@H](N)[C@@H](O[C@H]2[C@H](O)[C@@H](O[C@H]3OC[C@](C)(O)[C@H](NC)[C@H]3O)[C@H](N)C[C@@H]2N)O1` was run?
Answer: inactive: 0.977

Question: Which relative growth does the source give for `O=P(O)(O)C(Cl)(Cl)P(=O)(O)O` here?
Answer: inactive: 1.03

Question: With `COc1ccc([Si](C)(C)[C@@H]2[C@@H](CCO)O[C@]3(C(=O)N(Cc4ccc(N5C(=O)c6ccccc6Oc6ccccc65)cc4)c4ccccc43)[C@H]2C)cc1` as the compound, how does the relative growth read?
Answer: inactive: 0.906

Question: With `Cc1cnc(N2C[C@H]3OCCN(S(=O)(=O)N(C)C)[C@H]3C2)nc1` as the compound, how does the relative growth read?
Answer: inactive: 0.995

Question: Which relative growth does the source give for `C[C@@H]1CCCCO[C@@H](CN(C)S(=O)(=O)c2ccc(F)cc2)[C@H](C)CN([C@H](C)CO)C(=O)c2cc(NS(=O)(=O)c3ccc(Cl)cc3)ccc2O1` here?
Answer: inactive: 1.03

Question: For `O=c1ccc2ccc(O)cc2o1`, which relative growth is on record?
Answer: inactive: 1.02

Question: With `CO[C@@H]1CN(C)C(=O)c2cc(NS(=O)(=O)CC(F)(F)F)ccc2OC[C@@H](C)N(Cc2ccccn2)C[C@@H]1C` as the compound, how does the relative growth read?
Answer: inactive: 1.02

Question: With `C[C@@H]1CN([C@@H](C)CO)C(=O)c2cc(C#CCc3ccccc3)cnc2O[C@@H]1CN(C)C(=O)Cc1cccnc1` as the compound, how does the relative growth read?
Answer: inactive: 0.993

Question: `C[C@H](CO)N1C[C@H](C)[C@H](CN(C)C(=O)c2cnccn2)Oc2ncc(-c3cccc(C#N)c3)cc2C1=O` was tested. Which relative growth did it give?
Answer: inactive: 1.02

Question: `O=C([O-])C=CC(=O)[O-].[Fe+2]` was tested. Which relative growth did it give?
Answer: inactive: 1.04

Question: With `Cc1ccccc1[C@@H](c1ncccc1C)N(C)C(=O)C1CCN(CCOc2ccc(Cl)cc2Cl)CC1` as the compound, how does the relative growth read?
Answer: inactive: 1.01

Question: `COc1ccc(S(=O)(=O)Nc2cccc3c2O[C@H](CN(C)Cc2ccncc2)[C@@H](C)CN([C@@H](C)CO)C3=O)cc1` was tested. Which relative growth did it give?
Answer: inactive: 0.971

Question: How did the relative growth turn out when `C[C@H](CO)N1C[C@H](C)[C@@H](CN(C)S(=O)(=O)c2ccc(F)cc2)Oc2cc(C#Cc3ccncc3)ccc2S1(=O)=O` was run?
Answer: inactive: 1.03
